Reference: patent publication US20250248396A1, “CHITOSAN ENCAPSULATION OF ABSOLUTE (ESSENTIAL) ROSEMARY, PEPPERMINT, AND COTTONSEED OILS” (priority 2024, published 2025)

Legend:
[1] = test system: Black Sigatoka; assay: Field trials in bananas against black Sigatoka, tank mixes; assay type: in vivo, Mycosphaerella fijiensis; settings: applied as tank mixes with tea tree oil, banana
Method: Tea tree oil was used in disclosed experiments and trials as an 53 mulsifiable concentrated formulation. For field trials in bananas, tea tree oil was applied similarly to conventional synthetic fungicides, with mineral oil, surfactants, and/or just water. The following fungicides, registered for use against black sigatoka in bananas, were tested for comparison: azoxystrobin (Bankit 25 SC), trifloxystrobin (Flint, Tega 50 WG), difenoconazole (Score, Sico 25 EC), mancozeb (43 SC Duwest 80 WP), flutriafol (Impact, 125 SC) and tridemorph (Calixin 86 OL).
Fungicides are combined in mixtures mainly: to widen the spectrum of antifungal activity and to extend its duration; to exploit the synergistic interaction between the compounds, whereby the overall activity can be increased or the amounts used can be reduced without loss of activity; and to delay or reduce the emergence of resistant strains. […] Although in principle, combinations of synthetic antifungal compounds could be used to reduce the chemical load of any particular compound applied to crops, concerns about resistance development at lower doses have militated against their use as advised by the Fungicide Resistance Action Committee (FRAC).

[2] = all the antioxidant assay systems; cited from earlier work
[3] = cited from earlier work
[4] = test system: Black Sigatoka; assay: Black Sigatoka assessment in development of embodiments; settings: general statement

## CC1COC(Cn2cncn2)(c2ccc(Oc3ccc(Cl)cc3)cc2Cl)O1 (stereo not drawn) [difenoconazole]
[1]
  control of Black Sigatoka: effectively controlled Black Sigatoka

## O=c1c(O)c(-c2ccccc2)oc2cc(O)cc(O)c12 [Galangin]
[2]
  antioxidant activity: comparable activity with that of AEP and EEP

## CC(C)=CCC/C(C)=C/CO [Geraniol, 3,7-dimethyl-2,6-octadien-1-ol]
[3]; most common organic solvents
  solubility in organic solvents: soluble
[3]; water
  solubility in water: insoluble
[4]
  control of the black sigatoka fungus: effective

## CON=C(C(=O)OC)c1ccccc1CON=C(C)c1cccc(C(F)(F)F)c1 [trifloxystrobin]
[1]
  control of Black Sigatoka: effectively controlled Black Sigatoka
